# Some of the results follow. One pool of 16,384 single-stranded DNAs met each Rep nickase domain in vitro (3 µM enzyme, 1 h, 37 °C); shown is the middle of each 90-letter strand. Numbers give uncut DNA relative to the enzyme-free pool, as log2; more negative means more cut, near 0 not cut, and no call is made. The scaling is to total reads, so uncut sequences can rise above 0 when many others are cut.
# Tested on: T1, Rep nickase domain of tomato golden mosaic virus
# T1 sequence (residues 1-124, tag not shown): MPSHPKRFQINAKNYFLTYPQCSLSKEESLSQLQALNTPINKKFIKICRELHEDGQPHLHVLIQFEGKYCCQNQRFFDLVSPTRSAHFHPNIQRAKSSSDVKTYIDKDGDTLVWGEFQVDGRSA
# Experiment: uncleaved DNA left, log2 of reads against the no-enzyme library (log2 ratio); higher = less cleavage (more negative = more Rep cleavage of the k-mer); sequences stand for … in CTCGTCCG…ACCGGAGA
# Method: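 A pool of 90-nt single-stranded DNAs with seven random bases just before the constant AC of the nick site (name = the seven bases) was cut by 3 µM recombinant His6-SUMO-tagged Rep nickase domain (300 nM DNA, 50 mM HEPES pH 8.0, 50 mM NaCl, 1 mM MnCl2, 1 h, 37 °C, three replicates). Uncut DNA was amplified and sequenced.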
row,Sequence,uncleaved DNA left (log2)
1,ACTTAGC,-0.0571
2,ATGGGGC,0.0571
3,CGTGGAC,-0.106
4,GCATCAA,0.122
5,GGAACAA,-0.0583
6,AACGACG,0.0284
7,CATGTGA,-0.123
8,AACGAAC,-0.116
9,ATGAGTG,0.26
10,TGTTTCC,-0.0587
11,TGTCTGC,0.0454
12,AGCCCTC,0.00432
13,GTGCACA,0.112
14,ATCCGCT,-0.0515
15,CGCATCA,0.0476
16,AACTTGC,-0.182
17,AAACGCC,-0.0383
18,GGTGGAC,0.0185
19,CACTGTC,-0.253
20,ATTTGGA,-0.122

row,Sequence,uncleaved DNA left (log2)
1,GTTTGCA,0.0138
2,GCACGGC,0.00596
3,CAGTATG,0.0551
4,AGGTGGT,0.0601
5,GTCACGC,0.00776
6,TCACCTA,-0.162
7,TCATGTT,-2.48
8,TGGCATG,-0.0583
9,AATAGGA,0.167
10,GCACTAG,0.0461
11,TCTAGCG,-0.0711
12,CGCATGG,-0.0216
13,GTCATTT,0.0914
14,ATGTACC,-0.00998
15,TTTGAGA,0.00483
16,CCGATAG,0.0695
17,TGGTTAG,0.00839
18,ATCCTAA,0.2
19,TGTTCGT,-0.0694
20,CTCAGTA,-0.0362

# — the supplement of paper PMC7826260
